The record followed here is patent US10358436B2, “Kinase inhibitors and method of treating cancer” (University Health Network, priority 2010, dated 2019).

Assay in all cases: cells
For assay [1], the system named is HCC1954 basal breast cancer cell line. The settings on record: Homo sapiens, HCC1954, 120 h.
Assay [2] deals with MCF-7 luminal breast cancer cell line. The note with it: Homo sapiens, MCF7, 120 h.
Assay [3] concerns SW620 colon cancer cell line. The settings on record: Homo sapiens, SW-620, 120 h, read-out: Cell Line GI50 Range SW-620.
Assay [4] relates to A549 lung cancer cell line. The note with it: Homo sapiens, A549, 120 h, read-out: Cell Line GI50 Range A-549.
The subject of assay [5] is MDA-MB-468 basal breast cancer cell line. The settings on record: Homo sapiens, MDA-MB-468, 120 h.
The mark [6] stands for this setting: read-out: Cell Line GI50 Range HCC-1954.
Where [7] appears, read: read-out: Cell Line GI50 Range MCF-7.
Setting [8] is: read-out: Cell Line GI50 Range MDA-MB-468.
Setting [9] is: read-out: Cell Line GI50 Range HCC-1954, HCC1954 basal breast cancer cell line, SRB assay, 5 days.
[10] abbreviates: read-out: Cell Line GI50 Range MCF-7, MCF-7 luminal breast cancer cell line, SRB assay, 5 days.
Setting [11] is: read-out: Cell Line GI50 Range MDA-MB-468, MDA-MB-468 basal breast cancer cell line, SRB assay, 5 days.

Where a name gives a salt, the structure may show the parent alone. Read-outs that look alike come from different tables or passages of the source.

For orientation: GI50 means the concentration at which growth is held to half of that of the control. `COc1ccc2c(c1)[C@]1(C[C@H]1c1ccc3c(-c4ccc(N5CCNCC5)cc4)n[nH]c3c1)C(=O)N2C` [Example A101, (1R,2S)-5′-methoxy-1′-methyl-2-(3-(4-(piperazin-1-yl)phenyl)-1H-indazol-6-yl)spiro[cyclopropane-1,3′-indolin]-2′-one 2,2,2-trifluoroacetate]: the GI50 in assay [1] (setting [6]) was 1000 to 10000 nM; in assay [2] (setting [7]), 100 to 1000 nM; in assay [3], 100 to 1000 nM; in assay [4] it was < 100 nM; in assay [5] (setting [8]), < 100 nM.
In the case of `COc1ccc2c(c1)[C@]1(C[C@H]1c1ccc3c(-c4ccc(OCCN(C)C)cc4)n[nH]c3c1)C(=O)N2` [Example A69, (1R,2S)-2-(3-(4-(2-(dimethylamino)ethoxy)phenyl)-1H-indazol-6-yl)-5′-methoxyspiro[cyclopropane-1,3′-indolin]-2′-one 2,2,2-trifluoroacetate salt], the GI50 in assay [1] (setting [9]) is 100 to 1000 nM; in assay [2] (setting [10]) it was < 100 nM; in assay [3] it was < 100 nM; in assay [4] it was < 100 nM; in assay [5] (setting [8]), < 100 nM.
For `COc1ccc2c(c1)C1(CC1c1ccc3c(I)n[nH]c3c1)C(=O)N2` (single isomer, unassigned) [Example A6, (1R*,2S*)- and (1R*,2R*)-2-(3-iodo-1H-indazol-6-yl)-5′-methoxyspiro-[cyclopropane-1,3′-indolin]-2′-one], the GI50 in assay [1] (setting [6]), in assay [2] (setting [7]), in assay [3], in assay [4] and in assay [5] (setting [8]) was 100 to 1000 nM throughout.
For the molecule `CCN1CCN(c2ccc(-c3n[nH]c4cc([C@@H]5C[C@@]56C(=O)Nc5ccc(OC)cc56)ccc34)cc2)CC1` (relative stereo) [Example A98, (1R*,2S*)-2-(3-(4-(4-ethylpiperazin-1-yl)phenyl)-1H-indazol-6-yl)-5′-methoxyspiro[cyclopropane-1,3′-indolin]-2′-one 2,2,2-trifluoroacetate], the GI50 was > 10000 nM in assay [1] (setting [9]); 100 to 1000 nM in assay [2] (setting [7]); < 100 nM in assay [3]; < 100 nM in assay [4]; < 100 nM in assay [5] (setting [11]).
Turning to `O=C1Nc2ncc(Br)cc2[C@]12C[C@H]2c1ccc2c(/C=C/c3cccnc3)n[nH]c2c1` (relative stereo) [Example A27, (1R*,2S*)-5′-bromo-2-(3-((E)-2-(pyridin-3-yl)vinyl)-1H-indazol-6-yl)spiro[cyclopropane-1,3′-pyrrolo[2,3-b]pyridin]-2′(1′H)-one], the GI50 in assay [1] (setting [9]) is 1000 to 10000 nM; in assay [2] (setting [10]) it was 1000 to 10000 nM; in assay [3], 1000 to 10000 nM; in assay [4] it was 1000 to 10000 nM; in assay [5] (setting [8]) it was 100 to 1000 nM.
Take `COc1ccc2c(c1)[C@]1(C[C@H]1c1ccc3c(C#Cc4ccc(CN5CCOCC5)cc4)n[nH]c3c1)C(=O)N2` (relative stereo) [Example A138, (1R*,2S*)-5′-methoxy-2-(3-((4-(morpholinomethyl)phenyl)ethynyl)-1H-indazol-6-yl)spiro[cyclopropane-1,3′-indolin]-2′-one 2,2,2-trifluoroacetate]: the 50% growth inhibitory concentration (GI50) in assay [1] (setting [9]) lay in the range of 1000 to 10000 nM; in assay [2] (setting [10]) it was 100 to 1000 nM; in assay [3], 1000 to 10000 nM; in assay [4], 100 to 1000 nM; in assay [5] (setting [8]) it was 100 to 1000 nM.
On to `COc1ccc2c(c1)[C@]1(C[C@H]1c1ccc3c(-c4ccc(N5CCC(N6CCOCC6)CC5)cc4)n[nH]c3c1)C(=O)N2` [Example A121, (1R,2S)-5′-methoxy-2-(3-(4-(4-morpholinopiperidin-1-yl)phenyl)-1H-indazol-6-yl)spiro[cyclopropane-1,3′-indolin]-2′-one 2,2,2-trifluoroacetate], for which the GI50 in assay [1] (setting [9]) was in the range of 1000 to 10000 nM; in assay [2] (setting [10]), 100 to 1000 nM; in assay [3] it was 1000 to 10000 nM; in assay [4] it was 100 to 1000 nM; in assay [5] (setting [8]), 100 to 1000 nM.
`CN1C(=O)[C@@]2(C[C@H]2c2ccc3c(/C=C/c4ccc(CN5CCCCC5)cc4)n[nH]c3c2)c2ccccc21` (relative stereo) [Example A95, (1R*,2S*)-(E)-1′-methyl-2-(3-(4-(piperidin-1-ylmethyl)styryl)-1H-indazol-6-yl)spiro[cyclopropane-1,3′-indolin]-2′-one 2,2,2-trifluoroacetate]: the GI50 in assay [1] (setting [6]) was 1000 to 10000 nM; in assay [2] (setting [7]) it was 1000 to 10000 nM; in assay [3] it was < 100 nM; in assay [4] it was < 100 nM; in assay [5] (setting [8]), < 100 nM.
Turning to `COc1ccc2c(c1)[C@]1(C[C@H]1c1ccc3c(/C=C/c4csc(CN(C)C)c4)n[nH]c3c1)C(=O)N2` (relative stereo) [Example A181, (1R*,2S*)-2-(3-4E)-2-(5-((dimethylamino)methyl)thiophen-3-yl)vinyl)-1H-indazol-6-yl)-5′-methoxyspiro[cyclopropane-1,3′-indolin]-2′-one 2,2,2-trifluoroacetate], the 50% growth inhibitory concentration (GI50) in assay [1] (setting [9]) is 100 to 1000 nM; in assay [2] (setting [10]), < 100 nM; in assay [3] it was < 100 nM; in assay [4], < 100 nM; in assay [5] (setting [8]) it was < 100 nM.
`COc1ccc2c(c1)[C@]1(C[C@H]1c1ccc3c(-c4ccc(N5CCNCC5)cc4)n[nH]c3c1)C(=O)N2` (relative stereo) [Example A48, (1R*,2S*)-5′-methoxy-2-(3-(4-(piperazin-1-yl)phenyl)-1H-indazol-6-yl)spiro[cyclopropane-1,3′-indolin]-2′-one 2,2,2-trifluoroacetate]: the GI50 in assay [1] (setting [9]) was 1000 to 10000 nM; in assay [2] (setting [7]), < 100 nM; in assay [3] it was 1000 to 10000 nM; in assay [4] it was < 100 nM; in assay [5] (setting [11]), < 100 nM.
On to `COc1ccc2c(c1)[C@]1(C[C@H]1c1ccc3c(-c4ccc5c(c4)CNCC5)n[nH]c3c1)C(=O)N2` [Example A71, (1R,2S)-5′-methoxy-2-(3-(1,2,3,4-tetrahydroisoquinolin-7-yl)-1H-indazol-6-yl)spiro[cyclopropane-1,3′-indolin]-2′-one 2,2,2-trifluoroacetate salt], for which the GI50 in assay [1] (setting [9]), in assay [2] (setting [10]), in assay [3], in assay [4] and in assay [5] (setting [8]) was 100 to 1000 nM in each case.
Regarding `CN1C(=O)[C@@]2(C[C@H]2c2ccc3c(/C=C/c4ccc(CN5CCCCC5)cc4)n[nH]c3c2)c2ccccc21` [Example A94, (1R,2S)-(E)-1′-methyl-2-(3-(4-(piperidin-1-ylmethyl)styryl)-1H-indazol-6-yl)spiro[cyclopropane-1,3′-indolin]-2′-one hydrochloride], the GI50 was 100 to 1000 nM in assay [1] (setting [6]); < 100 nM in assay [2] (setting [7]); < 100 nM in assay [3]; < 100 nM in assay [4]; < 100 nM in assay [5] (setting [8]).
For `COc1ccc2c(c1)[C@]1(C[C@H]1c1ccc3c(-c4ccc(N5CCN(C)CC5)nc4)n[nH]c3c1)C(=O)N2C` (relative stereo) [Example A104, (1R*,2S*)-5′-methoxy-1′-methyl-2-(3-(6-(4-methylpiperazin-1-yl)pyridin-3-yl)-1H-indazol-6-yl)spiro[cyclopropane-1,3′-indolin]-2′-one bis(2,2,2-trifluoroacetate)], the concentration for 50% growth inhibition (GI50) in assay [1] (setting [6]) is 100 to 1000 nM; in assay [2] (setting [7]) it was 100 to 1000 nM; in assay [3], 100 to 1000 nM; in assay [4], < 100 nM; in assay [5] (setting [8]), 100 to 1000 nM.
Regarding `Cc1cc(/C=C/c2n[nH]c3cc([C@@H]4C[C@@]45C(=O)Nc4ccccc45)ccc23)ccn1` (relative stereo) [Example A161, (1R*,2S*)-2-(3-((E)-2-(2-methylpyridin-4-yl)vinyl)-1H-indazol-6-yl)spiro[cyclopropane-1,3′-indolin]-2′-one], the GI50 was 1000 to 10000 nM in assay [1] (setting [6]); 1000 to 10000 nM in assay [2] (setting [7]); 100 to 1000 nM in assay [3]; 100 to 1000 nM in assay [4]; 100 to 1000 nM in assay [5] (setting [8]).
As to `CN1CCN(c2ccc(-c3n[nH]c4cc([C@@H]5C[C@@]56C(=O)Nc5ccc(N)cc56)ccc34)cc2)CC1` (relative stereo) [Example A86, (1R*,2S*)-5′-amino-2-(3-(4-(4-methylpiperazin-1-yl)phenyl)-1H-indazol-6-yl)spiro[cyclopropane-1,3′-indolin]-2′-one], the GI50 in assay [1] (setting [6]) was > 10000 nM; in assay [2] (setting [7]), > 10000 nM; in assay [3], 1000 to 10000 nM; in assay [4], 1000 to 10000 nM; in assay [5] (setting [8]) it was 1000 to 10000 nM.
Consider `CN1CCN(c2ccc(-c3n[nH]c4cc([C@@H]5C[C@@]56C(=O)Nc5ccccc56)ccc34)cn2)CC1` (relative stereo) [Example A18, (1R*,2S*)-2-(3-(6-(4-Methylpiperazin-1-yl)pyridin-3-yl)-1H-indazol-6-yl)spiro[cyclopropane-1,3′-indolin]-2′-one], for which the GI50 in assay [1] (setting [9]) fell in the range of 1000 to 10000 nM; in assay [2] (setting [7]) it was 100 to 1000 nM; in assay [3] it was 1000 to 10000 nM; in assay [4] it was 1000 to 10000 nM; in assay [5] (setting [11]), 100 to 1000 nM.
For `COCCN1C(=O)[C@@]2(C[C@H]2c2ccc3c(/C=C/c4ccc(CN(C)C)cc4)n[nH]c3c2)c2ccccc21` [Example A131, (1R,2S)-(E)-2-(3-(4-((dimethylamino)methyl)styryl)-1H-indazol-6-yl)-1′-(2-methoxyethyl)spiro[cyclopropane-1,3′-indolin]-2′-one 2,2,2-trifluoroacetate], the GI50 was 100 to 1000 nM in assay [1] (setting [9]); 1000 to 10000 nM in assay [2] (setting [10]); < 100 nM in assay [3]; < 100 nM in assay [4]; < 100 nM in assay [5] (setting [8]).
